Source: the RNAGym collection of RNA variant scans (doi:10.1073/pnas.2313332121)
This sample is rich in variants without activity.

B1: TPR 5TU (parent)
chain: GGAUCUUCUCGAUCUAACAAAAAAGACAAAUCUGCCACAAAGCUUGAGAGCAUCUUCGGAUGCAGAGGCGGCAGCCUUCGGUGGCGCGAUAGCGCCAACGUUCUCAACUAUGACACGCAAAACGCGUGCUCCGUUGAAUGGAGUUUAUCAUG

Variants of: B1
Assay: polymerase ribozyme fitness, log enrichment relative to wild type (log ratio); higher = more active; in vitro selection for triplet polymerase activity
Outline: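 For each subunit of a heterodimeric triplet polymerase ribozyme, a mutant library was built by PCR and transcribed, then taken through a single in vitro selection round in triplicate. Selection involved annealing to a biotinylated primer, the partner subunit and triplets, incubation frozen at −7 °C, gel excision of extended constructs, capture on streptavidin beads and RT-PCR. Genotypes were retained after Illumina sequencing of inputs and outputs only with ≥10 input reads and ≥1 read in each output. Fitness is defined as the logarithm of a genotype's enrichment relative to wild-type enrichment, using inverse-variance-weighted averages across replicates, with the logarithm taken to base 2.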

Row | Variant | polymerase ribozyme fitness (log ratio)
1 | GGAUCUUCUCGCUCUAACAAAAAAGACAAAUCUGCCACAAACCGGGAGAGCAUCUUCGGAUGCAGAGACGGCAGCAUUCGGUGGCGCGAUAGCGCCAACGUUCUUAGCUAUGACACGCAAAACGCGUGCUCCGUUGAAUGGAGUUUAUCAUG | ≤ -4.2
2 | GGAUCUUCUCGCUCUAACAAAAAAGACAAAUCUGCCACAAAGCUUGAGAGCAUCUUCGGAUGCAGAGGCGGCAGCCUUCGGUGGUGCGAUAGCGCCAACGUUCUCAACUAUGACAAGCAAAGCGCGUGCUCCGUUGAAUGGAUUUUAUCAUG | ≤ -4.2
3 | GGAUCUUCUCGCUCUAACAAAAAAGACAAAUCUGCCACAAAGCUUGAGAGCAUCUUCGGAUGCAGAGGCGGCAGCCUUCGUUGGCGCGAUAGCGGCAACGUUCUCAACUAUGACACGCAAAUCGCGUGCUCCGUUGAAUGGAGUUUAGCAUU | ≤ -4.2
4 | GGAUCUUCUCGCUCUAACAAAAAAGACAAAUCUGCCACAAAGCUUGAGAGCCUCUUCGGAUGCAGAGGCGGCAGCCUUCGGUAGCGCGAUUGCGCCAACGUUCUCAACUAUGACACGCAAAACGCGUGCUCCGUUGAAUGGAGUUUAUCAUG | ≤ -4.2
5 | GGAUCUUCUCGCUCUAACAAAAAAGACAAAUCUGCCAAAAAGCUUGAGAGCAUCUUCGGAUGCAGAGGCGGCAGCCUUCGGUGGCGCGAUAGUGCCAACGUUCUCAACUAUGACACGCAAAACGCGUGCUCCGUUGAAUGGAGUUUAUCAUG | -1.62
6 | GGAUCUUCUCGCUCUAACAAAAAAGACAAAUCUACCACAAAGCUUGAGAGCAUCUUCGGAUGCAGAGGCGGCAGCCUUCGGUGGCGAGAUGGCGCCAACGUUUUCAACUAUGACACACAAAACGCGUGCUCCUUUGAAUGGAGUUUAUCAUG | ≤ -4.2
7 | GGAUCUUCUCGCUCUAACAAAAAAGACAAAUCUGCCACAAAGCUUGAGAGCAUCUUCGGAUGCAGAGGCGGCAGCCUUCGGUGGCGCGAUAGCGCCAUCGUUCUCAACUAUGACACGCAAAACGCGUUCUCCGUUGAAUCGAGUUUAUCAUG | ≤ -4.2
8 | GGAUCUUCUCGCUCUAACAAAAAAGACAAAUCUGCCCCAAAGCUUGAGAGCAUCUUCGGAUGCAGAGGCGGAAGCCUUCGGUGGCGCGAGAGCGCCAACGAUUUCAACUAUGACACGCAAAACGCGUGCUCCGUUGAGUGGUGUUUAUCAUG | ≤ -4.2
9 | GGAUCUUCUCGCUCUAACAAAAAAGACAAAUCUGACACAAAGCUUGAGAGCAUCUUCGGAUGCAGAGGCGGCAGCCUUCGGUGGGGCGAUAGCGCCAACGUUGUCAACUAUGACACGGAAAACGCGUGCUCCGUUGAAUGCAGUUUAUCAUG | ≤ -4.2
10 | GGAUCUUCUCGCUCAAACAAAAAAGACAAAUCUGCCACAAAGCUUGAGAGCAUCUACGGAUGCAGAGGCGGCAGCCUUCGGUGGCGCGAUAGCGCCAACGUUCUCAACUAUGACACGCAAAACGCGUGCUCCGUUGAAUGGAGUUUAUCAUG | -0.709
11 | GGAUCUUCUCGGUCUCACAAAAAAGACAUAUCUGCCAAAAAGCUUGAGAGCAUCUUCGGAUGCAGAGGCGGCAGCCUUCGGUGGCGCGAUAGCGGCAACGUUCUCAACUAGGACACGCAAAACGCGUGCUCCGUUCAAUGGAGUUUAUCAUG | ≤ -4.2
12 | GGAUCUUCUCGCUGUAACAAAAAAGUCAAAUCUGCCACAAAGCUUGAGCGCAUCUUCGAAUGCAGAGGCGGCAGCCUUCGGUGGCGCGAUAGCGCCAACGUUCUCAACUAUGACACGCAAAACGCGUGCUACGUUGAAUGGAGUUUAUCAUG | ≤ -4.2
13 | GGAUCUUCUCGCUCUAACAAAAAACACAAAUCUGCCACAAAGCUUGAGAGCAUCUUCGGAUGCAGAGUCGGCAGAGUUCGGUGGCGCGAUAGGGCCAACGUUCUCAACUAUGACACGCAAAACGCGUGCUCCGUUGAAUGCAGUUUAUCAUG | ≤ -4.2
14 | GGAUCUUCUCGCUCUAACAAAAAAGACAAAUCUGUCACAAAGCUUGAGAGCAUCUUCGGAUGCAGAGGCGGCAGCCUUCGGUGGCACGAUAGUGCCAACGUUCUCAACUAUGACACGCAAAACGCGUGCUCCGUUGAAUGGAGUUUAUCAUG | -1.43
15 | GGAUCUUCUCGCUCUAACAAAAAAGACAAAUCUGCCACAAAGCUUGAGAGCAUCUUCCGAUGCAGAGGCGGCAGCCUUCGGUGGCGCGAUAGCGCGAACGUUCUCAACUAUGACACGCAAAACGCGUGCUCCGUUGAAUGGAGUUUAUCAUG | -1.07
16 | GGAUCUUCUCGCUCUAACAAAAAAGACAAAUCUGCCACAAAGCUUGAGAGCAUCUUCGGAUGCAGAGGCGGCAGCCUUCGGUGGCGCGAUAGCGCUAACGUUCUCAACUAUGACACGCAAAACGCGUGCUCCGUUGAAUGGAGUUUAUCAUG | -0.42
17 | GGAUCUUCUCGCUCUAACAAAAAAGACAAAUCUGCCACAACGCUUGAGAGCAUUUUCGGAUGCAGAGGCGGCAGCCUUCGGUGGCGCGAUAGCUCCAACGUUCUCAACUAUGACACGCAAGACGCGUGCUCCGUUGAAUCGAGUUUAUCAUG | ≤ -4.2
18 | GGAUCUUCUCGCUCUAACAAAAAAGACAAAUCUGCCACAAAGCUUGAGAGCAUCUUCGGAUGCAGAGGCGGCAGCCGUCGGUGGCGCGCUAGGGCCAACGUUCUAAACUAUGACACGCAAAACGCGUGCUCCGUUGAAUGGAGUUUAUCAUG | ≤ -4.2
19 | GGAUCUUCUCGCUCUAACAAAAAAGACAAAUCUGCCACAAAGCUUGAGAGCAUCUUCGGAAGCAGAGCCGGCAGCCUUCGGUGGCGCGAUAGGCCCAACGUUCUUAACUAUGACACGCAAAACGCGUGCUCCGUUGAAUGGAGUUUAUCAUG | ≤ -4.2

Row | Variant | polymerase ribozyme fitness (log ratio)
20 | GGAUCUUCUCGCUCUAACAAAAAAGACAAAUCUGCCACAAAUCUUGAGACCAUCUUCGGAUGCAGAGGAGGCGGCCUUCGGUGGCGCGAUAGCGCCAACGUUCUCAACUAUGACAAGCGAAACGCGUGCUCCGUUGAAUGGAGUUUAUCUUG | ≤ -4.2
21 | GGAUCUUCUCGCUCUAACAAAAAAGACAAAUCUGCCAGAAAGCUUGAGAGCAUCUUCGGAUGCAGAGGCGGCAGCCUUCGGUGGAGCGAUAGCGCCAACGUUCUCAACUAUGACAAGCAGAACGCGUGCUCCGUUGAAUGGAGUUUAUCAUG | -1.83
22 | GGAUCUUCUCGCUCUAACAAAAAAGACAAAUCUGCCACAAAGCUUGAGAGCAUCUACGGAUGCAGAGGCGGCAGCGUCCGGUGGCGCGAUAGCGCUAACGUUCUCGACUAUGACACGCAAAAUGCGUGCUCCGUUGAAUGGCGUUUAUCAUG | ≤ -4.2
23 | GGAUCUUCUCGCUCUAACAAAAAAGACAAAUCUGCCACAAAGCUUGAGAGCAUCUUCGGAUGCAGAGGCGGCAGCCUUCGGUGGCGCGAUAGCUCCAACGUUCUCAACUAUGACACGCAAAACGCGUGCUCCGUUGAAUGGAGUUUAUCGUG | -2.61
24 | GGAUCUUCUCGCUCUAACAAAAAAGACAAAUCUGCCAUAAAGCUUGAGACCAUCUUCGGAUGCAGAGGCGGCAGCCUUCGGUGGCGCGAUAGCGCGAACGUUCUCAACUAUGACACUCAAAACGCGUGCUCCGUUGAAUGGAGUUUAUCAUG | ≤ -4.2
25 | GGAUCUUCUCGCUCUAACAAAAAAGACAAAUCUGCCACAAAGCUUGAGAGCAUCUUCGGUUGCAGAGGCGGCAGGCUUCGGUGGCGCCAUGGCGCCAACGUUCUCAACGAUGACACGCAAAACGCGUGCUCCGUUGAAUGGAGUUUAUCAUG | ≤ -4.2
26 | GGAUCUUCUCGCUCUAACAAAAAAGACAAAUCUGCCACAAAGCUUGAGAGCAUCUUCGGAUGCAGAGGCGGCAGCCAUCGGUGGCACGAUAGCGCCAACGUUCUCAACUAUGACACGCAAAACGCGUGCUCCGUUGAAUGGAGUUUAUCGUG | ≤ -4.2
27 | GGAUCUUCUCGCUCUAACAAAAAAGACAAAUCUGCCACAAAGCUUGAGAGCAUCUUCGGAUGCAGAGGCGGCAGCCUUCGGUGGGGCGAUAGCGCCAACGUUCUCAACUAUGACACGCAAACCGCGUGCUCCGUUGAAUGGAGUUUAUCAUG | -2.14
28 | GGAUCUUCUCGCUCUAACAAAAAAGACAAAUCUGCCACAAAGCUUGAGAGCAUCUUCGGAUGCAGAGGCGUCAGCCUUCGGUGGCGCGAUAGUGCCGACGUUUUCAACUAUGACACGCAAAACGCGUGCUGCGUUGAAUGCAGUUUAUCAUG | ≤ -4.2
29 | GGAUCUUCUCGCUCUAACAAAAAAGACAAAUCUGCCACAAAGCUUGAGAGCAUCUUCGGAUGCAGAGGCGGCAGCCUUCGGUGGUGCGAUAGCGCCAACGUUCUCAACUAUGACACGCAAAACGCGUGCUCCGUUGAAUGGUGUUUAUCAUG | -1.48
30 | GGAUCUUCUCGCUCUAACAAAAAAGACAAAUCUGCCAUAAAGCUUGAGAGCAUUUUCGGAUGCAGAGGCGGCAGCUGUCGGUGACGCGAUAGCGCCAACGUUCUCAACUAUGACACGCAAAACGCGAGCUCCGUUGAUUGGAGUUUAUCAUG | ≤ -4.2
31 | GGAUCUUCUCGCUCUAACAAAAAAGACAAAUCUGCCACAAAGCUUGAGAGCAUCUUCGGAUGCAGAGGCGGCAGCCUUCGGUGGCGCGAUAGCUCCAACGUUCUCAACUAUGACACGCAAAACGCGUGCUCCGUUGAAUGGAGUUUAACAUG | ≤ -4.2
32 | GGAUCUUCUCGCUCUAACAAAAAAGACAAAUCUGCCACAAAGCUUGAGAGCAUCUUCGGAUGCAGAGGCGGCAGCCUUCGGUGGCGCGAUAGCGCCAGCGUUCUCAACUAUGACACGCAAAACGCGUGCUCCGUUGAAUGGAGUUUAUCAUG | -0.18
33 | GGAUCUUCUCGCUCUAACAAAAAAGACAAAUCUGCCACAAAGCUUGAGAGCGUGUUCGGAUGCAGAGGCGGCAGCGUUCGGUGGCGCGAUAGCUCCAACGUUCUCAACUAUGACACGCAAAACGCGUGCUCCGUUGAAUGGAGUUUAUCAUG | ≤ -4.2
34 | GGAUCUUCUCGCUCUAACAAAAAAGACAAAUCUGCCACAAAGCUUGAGAGCCUCUUCGGAUGCAGAGGCGGCAGCCUCCGGUGGCGCGAUAGCGCCAACGUUCUCAACUAUGAUACGCAAAACGCGUGCUUCGUUGAAUGGAGUUUAACAUG | ≤ -4.2
35 | GGAUCUUCUCGCUCUAACAAAAAAGACAAAUCUGCCACAAAGCUUGAGAGCAUAUACGGAUGCAGAGGCAGCAGCCUUCGGUGGCGCGAUAGCGCCUACGUUCUACGCUAUGACACGCAAAGCGCGUGCUCCGUUGAAUGGAGUUUAUCAUG | ≤ -4.2
36 | GGAUCUUCUCGCACUAACAAAAACGACAAAUCUGCCACAAAGCUUGAAAGCAUCUUCGGAUGCAGAGGCGGCAGCCUUCGGUGUCGCGAUAGCGCCAACGUUCUCAACUAUGACCCGGAAAACGCGUGCUCCGUUGAAUGGAGUUUAUCAUG | ≤ -4.2
37 | GGAUCUUCUCGCUCUAACAAAAAAGACAAAUCUGCCAAAAAGCUUGAGAGCAUCGUCGGAUGCAGAGGCGGCUGCCUUCGGUGGCGCGAUAGCGCCAACGUUCUCAGCUAUGACACGCAAAACGCGUGCUCCGCUGAAUGGAGUUUAUCAUG | ≤ -4.2
38 | GGAUCUUCUCGCUCUAACAAAAAAGACAAAUCUGCCACAAAGCUUGAGAGCAUCUUCGGAUGCAGAGGCGGCAGCCUUCGGUGGCGCGAUAGCGCCAACGUUCUCAACUAUGACACGCAAAACGCGUGCUCCCUUGAAUGGAGUAUAUCAUG | -1.11
